Laboratory results taken from a compilation of properties of binary mixtures (doi:10.1016/j.jtice.2024.105468).
Some of these densities may be calculated back from excess volumes.

Experiment: xn = mol fraction of the nth substance listed
Details: 100 kPa

Question: Which mass density (298.15 K, x2 = 0) does the source give for `COCCO` + CCCC[n+]1ccn(C)c1.[Br-] here?
Answer: Its mass density is 960.2 kg/m3.

Question: And the mass density (303.15 K, x2 = 0)?
Answer: Its mass density is 955.6 kg/m3.

Question: And the mass density (308.15 K, x2 = 0)?
Answer: The mass density was 952.6 kg/m3.

Question: What about the mass density (313.15 K, x2 = 0) of the same compound?
Answer: Its mass density is 946.7 kg/m3.

Question: For `CCCC[n+]1ccn(C)c1.[Br-]` + COCCO, which mass density (298.15 K, x1 = 0.1002) is on record?
Answer: Its mass density is 1028 kg/m3.

Question: What about the mass density (298.15 K, x1 = 0.1999) of the same compound?
Answer: Its mass density is 1082.3 kg/m3.

Question: What about the mass density (298.15 K, x1 = 0.3002) of the same compound?
Answer: Its mass density is 1126.7 kg/m3.

Question: What about the mass density (298.15 K, x1 = 0.4) of the same compound?
Answer: The mass density was 1163.4 kg/m3.

Question: What about the mass density (298.15 K, x1 = 0.5) of the same compound?
Answer: Its mass density is 1194.2 kg/m3.

Question: What about the mass density (298.15 K, x1 = 0.5999) of the same compound?
Answer: The mass density was 1220.1 kg/m3.

Question: And the mass density (298.15 K, x1 = 0.8)?
Answer: Its mass density is 1261.2 kg/m3.

Question: What about the mass density (298.15 K, x1 = 0.8975) of the same compound?
Answer: The mass density was 1277.3 kg/m3.

Question: And the mass density (298.15 K, x1 = 1)?
Answer: The mass density was 1292.3 kg/m3.

Question: And the mass density (303.15 K, x1 = 0.1002)?
Answer: Its mass density is 1023.7 kg/m3.

Question: What about the mass density (303.15 K, x1 = 0.1999) of the same compound?
Answer: Its mass density is 1078.2 kg/m3.

Question: What about the mass density (303.15 K, x1 = 0.3002) of the same compound?
Answer: Its mass density is 1122.6 kg/m3.

Question: What about the mass density (303.15 K, x1 = 0.4) of the same compound?
Answer: Its mass density is 1159.3 kg/m3.

Question: What about the mass density (303.15 K, x1 = 0.5999) of the same compound?
Answer: Its mass density is 1216 kg/m3.

Question: And the mass density (303.15 K, x1 = 0.7002)?
Answer: Its mass density is 1238.1 kg/m3.

Question: And the mass density (303.15 K, x1 = 0.8)?
Answer: Its mass density is 1257.2 kg/m3.

Question: What about the mass density (303.15 K, x1 = 0.8975) of the same compound?
Answer: Its mass density is 1273.3 kg/m3.

Question: What about the mass density (303.15 K, x1 = 1) of the same compound?
Answer: Its mass density is 1288.1 kg/m3.

Question: What about the mass density (308.15 K, x1 = 0.1002) of the same compound?
Answer: Its mass density is 1021.2 kg/m3.

Question: And the mass density (308.15 K, x1 = 0.1999)?
Answer: The mass density was 1075.4 kg/m3.

Question: And the mass density (308.15 K, x1 = 0.3002)?
Answer: The mass density was 1119.8 kg/m3.

Question: And the mass density (308.15 K, x1 = 0.5)?
Answer: The mass density was 1187.2 kg/m3.

Question: What about the mass density (308.15 K, x1 = 0.5999) of the same compound?
Answer: The mass density was 1213.1 kg/m3.

Question: And the mass density (308.15 K, x1 = 0.7002)?
Answer: Its mass density is 1235.1 kg/m3.

Question: And the mass density (308.15 K, x1 = 0.8)?
Answer: Its mass density is 1254.1 kg/m3.

Question: What about the mass density (308.15 K, x1 = 0.8975) of the same compound?
Answer: Its mass density is 1270.1 kg/m3.

Question: What about the mass density (308.15 K, x1 = 1) of the same compound?
Answer: The mass density was 1284.7 kg/m3.

Question: And the mass density (313.15 K, x1 = 0.1002)?
Answer: Its mass density is 1015.9 kg/m3.

Question: And the mass density (313.15 K, x1 = 0.1999)?
Answer: The mass density was 1070.3 kg/m3.

Question: What about the mass density (313.15 K, x1 = 0.3002) of the same compound?
Answer: The mass density was 1114.9 kg/m3.

Question: What about the mass density (313.15 K, x1 = 0.5999) of the same compound?
Answer: The mass density was 1208.9 kg/m3.

Question: What about the mass density (313.15 K, x1 = 0.8) of the same compound?
Answer: Its mass density is 1250.2 kg/m3.

Question: What about the mass density (313.15 K, x1 = 0.8975) of the same compound?
Answer: Its mass density is 1266.3 kg/m3.

Question: What about the mass density (313.15 K, x1 = 1) of the same compound?
Answer: The mass density was 1280.9 kg/m3.
